In the supplement of paper PMC6609913 one finds normalised cell viability data, which are given here for 39 molecules.

This assay relates to V-C8 (BRCA2-deficient hamster cells). The assay can be described thus: normalised cell viability (fraction of plate median); higher = more viable cells (less toxic). As to conditions: 5 µM. The method in brief: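 BRCA2-deficient hamster V-C8 cells and BRCA2-restored V-C8 cells were plated in 96-well plates, and library drugs were added 24 h later at 5 μM in 100 μl medium. Exposure lasted 3 days in screen 1 and 6 days in screen 2, next to solvent-only wells. Viability was then read by resazurin assay, median-plate normalised and averaged across triplicate wells.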

Where a name gives a salt, the structure may show the parent alone. ± gives the standard deviation of the averaged measurements. In all, about 1,300 compounds were measured (“normalised cell viability”: median about 1, lowest 2% from about 0.14 on). The list shows a part of the results.

Turning to `CC(C)(O)c1ccccc1CC[C@@H](SCC1(CC(=O)O)CC1)c1cccc(/C=C/c2ccc3ccc(Cl)cc3n2)c1` [Montelukast], the normalised cell viability reads like this: (treatment time: 3 days) 1.09 ± 0.11; (treatment time: 6 days) 1.1 ± 0.052.

As for `CN1Cc2c(N)cccc2C(c2ccccc2)C1` (stereo not drawn) [Nomifensine maleate], the normalised cell viability runs as follows: (treatment time: 3 days) 1.058 ± 0.01; (treatment time: 6 days) 0.961 ± 0.044.

For the molecule `c1ccc(CNc2ncnc3nc[nH]c23)cc1` [Aminopurine, 6-benzyl], the normalised cell viability was determined as 0.947 ± 0.1 (treatment time: 3 days) and 0.94 ± 0.075 (treatment time: 6 days).

Take `Nc1ccn([C@@H]2O[C@H](CO)[C@@H](O)[C@@H]2O)c(=O)n1` [Cytarabine]: the normalised cell viability (treatment time: 3 days) stood at 0.206 ± 0.0091 and the normalised cell viability (treatment time: 6 days) came to 0.196 ± 0.022.

`COc1ccnc(C[S+]([O-])c2nc3cc(OC(F)F)ccc3[nH]2)c1OC` (stereo not drawn) [Pantoprazole sodium] gave a normalised cell viability (treatment time: 3 days) of 1.17 ± 0.35 and a normalised cell viability (treatment time: 6 days) of 1.09 ± 0.086.

Regarding `Nc1ccc(S(=O)(=O)Nc2ccccn2)cc1` [Sulfapyridine], the normalised cell viability reads like this: (treatment time: 3 days) 1.02 ± 0.025; (treatment time: 6 days) 1.058 ± 0.0097.

Take `C[C@@H]1C[C@H]2[C@@H]3C[C@H](F)C4=CC(=O)C=C[C@]4(C)[C@@]3(F)[C@@H](O)C[C@]2(C)[C@@]1(O)C(=O)COC(=O)C(C)(C)C` [Flumethasone pivalate]: the normalised cell viability (treatment time: 3 days) worked out at 1.08 ± 0.079 and the normalised cell viability (treatment time: 6 days) came out at 1.03 ± 0.055.

In turn, `CCOc1ccccc1OC(c1ccccc1)C1CNCCO1` (stereo not drawn) [Reboxetine mesylate] showed a normalised cell viability (treatment time: 3 days) of 0.966 ± 0.024 and a normalised cell viability (treatment time: 6 days) of 0.998 ± 0.021.

As to `CN(C)CCCN1c2ccccc2Sc2ccc(Cl)cc21` [Chlorpromazine hydrochloride], the normalised cell viability (treatment time: 3 days) amounted to 0.571 ± 0.11 and the normalised cell viability (treatment time: 6 days) was found to be 0.642 ± 0.017.

`COc1ccc(CC2c3cc(OC)c(OC)cc3CC[N+]2(C)CCC(=O)OCCCCCOC(=O)CC[N+]2(C)CCc3cc(OC)c(OC)cc3C2Cc2ccc(OC)c(OC)c2)cc1OC` (stereo not drawn) [Atracurium besylate]: the normalised cell viability reads like this: (treatment time: 3 days) 0.948 ± 0.059; (treatment time: 6 days) 0.979 ± 0.046.

`CC(=O)[C@H]1CC[C@H]2[C@@H]3CC=C4C[C@@H](O)CC[C@]4(C)[C@H]3CC[C@]12C` [Pregnenolone] yielded a normalised cell viability (treatment time: 3 days) of 1.05 ± 0.06 and a normalised cell viability (treatment time: 6 days) of 1.06 ± 0.03.

Consider `CCN(CCO)CCCC(C)Nc1ccnc2cc(Cl)ccc12` (stereo not drawn) [Hydroxychloroquine sulfate], for which the normalised cell viability worked out at 0.365 ± 0.05 (treatment time: 3 days) and 0.524 ± 0.048 (treatment time: 6 days).

The molecule `CCCCN1CCCCC1C(=O)Nc1c(C)cccc1C` (stereo not drawn) [Bupivacaine hydrochloride] showed a normalised cell viability (treatment time: 3 days) of 0.967 ± 0.029 and a normalised cell viability (treatment time: 6 days) of 1.01 ± 0.044.

Molecule `CCOC(=O)NNc1nncc2ccccc12` [Todralazine hydrochloride] yielded a normalised cell viability (treatment time: 3 days) of 0.913 ± 0.039 and a normalised cell viability (treatment time: 6 days) of 1.04 ± 0.061.

In turn, `CC(C)(C)c1ccc(C(O)CCCN2CCC(C(O)(c3ccccc3)c3ccccc3)CC2)cc1` (stereo not drawn) [Terfenadine] yielded a normalised cell viability (treatment time: 3 days) of 0.13 ± 0.0051 and a normalised cell viability (treatment time: 6 days) of 0.1 ± 0.0041.

Consider `CC(COc1ccccc1)NC(C)C(O)c1ccc(O)cc1` (stereo not drawn) [Isoxsuprine hydrochloride], for which the normalised cell viability (treatment time: 3 days) came out at 1.02 ± 0.031 and the normalised cell viability (treatment time: 6 days) is 0.99 ± 0.014.

For `CCCCNc1c(C(=O)OCC)c(C)nc2c1cnn2CC` [Tracazolate hydrochloride], the normalised cell viability was found to be 0.947 ± 0.034 (treatment time: 3 days) and 1.03 ± 0.013 (treatment time: 6 days).

On to `CCCCC1(COC(=O)CCC(=O)O)C(=O)N(c2ccccc2)N(c2ccccc2)C1=O` [Suxibuzone], for which the normalised cell viability by setting is: (treatment time: 3 days) 0.986 ± 0.024; (treatment time: 6 days) 1.07 ± 0.1.

For the molecule `COc1cc(NC(C)CCCN)c2ncccc2c1` (stereo not drawn) [Primaquine diphosphate], the normalised cell viability by setting is: (treatment time: 3 days) 0.937 ± 0.03; (treatment time: 6 days) 0.964 ± 0.07.

With `COc1cc(-c2ccc(=O)[nH]n2)ccc1OC(F)F` [Zardaverine], the normalised cell viability was 0.923 ± 0.023 (treatment time: 3 days) and 0.93 ± 0.044 (treatment time: 6 days).

Turning to `Cc1cc(-c2ccccc2)nnc1NCCN1CCOCC1` [Minaprine dihydrochloride], the normalised cell viability came to 1.07 ± 0.012 (treatment time: 3 days) and 1.01 ± 0.025 (treatment time: 6 days).

Regarding `NC(N)=Nc1nc(CSCC/C(N)=N/S(N)(=O)=O)cs1` [Famotidine], the normalised cell viability runs as follows: (treatment time: 3 days) 1.14 ± 0.06; (treatment time: 6 days) 1.04 ± 0.017.

On to `CC1=C(/C=C/C(C)=C/C=C/C(C)=C\C(=O)O)C(C)(C)CCC1` [Isotretinoin], for which the normalised cell viability by setting is: (treatment time: 3 days) 1.02 ± 0.017; (treatment time: 6 days) 1.02 ± 0.033.

On to `CC/C(=C(/CC)c1ccc(O)cc1)c1ccc(O)cc1` [Diethylstilbestrol], for which the normalised cell viability (treatment time: 3 days) is 1.06 ± 0.029 and the normalised cell viability (treatment time: 6 days) came to 0.979 ± 0.075.

For `CSc1ccc2c(c1)N(CCC1CCCCN1C)c1ccccc1S2` (stereo not drawn) [Thioridazine hydrochloride], the normalised cell viability (treatment time: 3 days) worked out at 0.121 ± 0.0035 and the normalised cell viability (treatment time: 6 days) is 0.0951 ± 0.0067.

In the case of `CN(C)[C@@H]1C(O)=C(C(N)=O)C(=O)[C@@]2(O)C(O)=C3C(=O)c4c(O)cccc4[C@@](C)(O)[C@H]3[C@H](O)[C@@H]12` [Oxytetracycline dihydrate], the normalised cell viability is, setting by setting: (treatment time: 3 days) 0.991 ± 0.015; (treatment time: 6 days) 0.945 ± 0.05.

As to `Cc1ccsc1/C=C/C1=NCCCN1C` [Morantel tartrate], the normalised cell viability came out at 0.989 ± 0.043 (treatment time: 3 days) and 1.05 ± 0.058 (treatment time: 6 days).

For `CN(C)c1ccc(O)c2c1C[C@H]1C[C@H]3[C@H](N(C)C)C(O)=C(C(N)=O)C(=O)[C@@]3(O)C(O)=C1C2=O` [Minocycline hydrochloride], the normalised cell viability by setting is: (treatment time: 3 days) 0.806 ± 0.009; (treatment time: 6 days) 0.886 ± 0.022.

`CCN(CC)CCNc1ccc(CO)c2sc3ccccc3c(=O)c12` [Hycanthone]: the normalised cell viability is 0.182 ± 0.0069 (treatment time: 3 days) and 0.183 ± 0.0059 (treatment time: 6 days).

Molecule `O=C(COc1ccc(Cl)cc1)N1CCN(Cc2ccc3c(c2)OCO3)CC1` [Fipexide hydrochloride] returned a normalised cell viability (treatment time: 3 days) of 1.07 ± 0.037 and a normalised cell viability (treatment time: 6 days) of 0.95 ± 0.055.

For `CNC(C)CCC=C(C)C` (stereo not drawn) [Isometheptene mucate], the normalised cell viability (treatment time: 3 days) worked out at 1.07 ± 0.044 and the normalised cell viability (treatment time: 6 days) worked out at 1.02 ± 0.078.

The molecule `CN(Cc1cnc2nc(N)nc(N)c2n1)c1ccc(C(=O)N[C@@H](CCC(=O)O)C(=O)O)cc1` (racemic) [Amethopterin (R,S)] came in with a normalised cell viability (treatment time: 3 days) of 0.287 ± 0.021 and a normalised cell viability (treatment time: 6 days) of 0.238 ± 0.0053.

Regarding `CN(Cc1cnc2nc(N)nc(N)c2n1)c1ccc(C(=O)N[C@@H](CCC(=O)O)C(=O)O)cc1` [Methotrexate], the normalised cell viability came out at 0.293 ± 0.011 (treatment time: 3 days) and 0.261 ± 0.021 (treatment time: 6 days).

Take `Nc1nc(NC2CC2)c2ncn([C@H]3C=C[C@@H](CO)C3)c2n1` [Abacavir Sulfate]: the normalised cell viability was 1.02 ± 0.1 (treatment time: 3 days) and 0.937 ± 0.12 (treatment time: 6 days).

`CCOC(=O)c1ccc(N)cc1` [Benzocaine] displayed a normalised cell viability (treatment time: 3 days) of 0.791 ± 0.027 and a normalised cell viability (treatment time: 6 days) of 0.927 ± 0.074.

Consider `OC(CCCN1CCCCC1)(c1ccccc1)c1ccccc1` [Diphenidol hydrochloride], for which the normalised cell viability (treatment time: 3 days) turned out to be 1.06 ± 0.037 and the normalised cell viability (treatment time: 6 days) came to 1.05 ± 0.031.

Regarding `CCN(CC)CCOC(=O)C(c1ccccc1)c1ccccc1` [Adiphenine hydrochloride], the normalised cell viability reads like this: (treatment time: 3 days) 0.976 ± 0.021; (treatment time: 6 days) 1.02 ± 0.039.

As to `Cc1ccc(S(=O)(=O)NC(=O)NN2CCCCCC2)cc1` [Tolazamide], the normalised cell viability came out at 0.997 ± 0.087 (treatment time: 3 days) and 0.992 ± 0.051 (treatment time: 6 days).

`C[C@]12CC[C@@H]3c4ccc(OS(=O)(=O)O)cc4CC[C@H]3[C@@H]1CCC2=O` [Estropipate]: the normalised cell viability runs as follows: (treatment time: 3 days) 1.04 ± 0.034; (treatment time: 6 days) 1.01 ± 0.057.
